The text below walks through data of paper doi:10.1101/2025.06.02.656870, “Replaying germinal center evolution on a quantified affinity landscape” (bioRxiv, 2025).

Common to all, as to assay: flow cytometry on cells; deep mutational scanning: scFv library on the yeast surface, biotinylated IgY (CGG) at 10-fold steps from 10^-6 to 10^-13 M, PE-streptavidin, FACS into four bins and sequencing; mean of two independent experiments
Holding throughout (settings): one partner purified
(In general: Flow cytometry measures light scatter and fluorescence of single cells or particles in a stream.)

The target in assay [1] is T1, clone 2.1 scFv N108LR.
T1 construct: as the VH of m4; as the Vκ of m4, with N108R; source: yeast-surface display (pETcon vector), site-saturation mutagenesis library, on yeast cells

Assay [2] concerns the target T2, clone 2.1 scFv Y38HE.
T2 construct: as the VH of m4, with Y38E; as the Vκ of m4; source: yeast-surface display (pETcon vector), site-saturation mutagenesis library, on yeast cells

The target of assay [3] is T3, clone 2.1 scFv Y42LN.
T3 construct: as the VH of m4; as the Vκ of m4, with Y42N; source: yeast-surface display (pETcon vector), site-saturation mutagenesis library, on yeast cells
T3 sequence (heavy, as listed by the source, chain 1 of 2): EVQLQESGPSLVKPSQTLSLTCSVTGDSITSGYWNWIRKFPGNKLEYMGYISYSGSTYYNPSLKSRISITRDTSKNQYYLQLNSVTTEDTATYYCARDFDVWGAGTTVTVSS
T3 sequence (light, as listed by the source, chain 2 of 2): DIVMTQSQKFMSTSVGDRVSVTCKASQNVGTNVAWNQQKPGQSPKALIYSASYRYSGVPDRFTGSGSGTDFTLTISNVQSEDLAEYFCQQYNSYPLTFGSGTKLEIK

T1 sequence (light, as listed by the source, chain 2 of 2): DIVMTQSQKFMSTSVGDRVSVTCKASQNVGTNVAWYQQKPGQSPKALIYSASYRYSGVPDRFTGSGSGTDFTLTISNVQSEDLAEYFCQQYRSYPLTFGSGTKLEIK
T2 sequence (heavy, as listed by the source, chain 1 of 2): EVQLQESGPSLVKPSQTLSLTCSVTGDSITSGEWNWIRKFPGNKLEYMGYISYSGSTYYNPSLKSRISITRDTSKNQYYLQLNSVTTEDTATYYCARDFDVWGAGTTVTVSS
T2 sequence (light, as listed by the source, chain 2 of 2): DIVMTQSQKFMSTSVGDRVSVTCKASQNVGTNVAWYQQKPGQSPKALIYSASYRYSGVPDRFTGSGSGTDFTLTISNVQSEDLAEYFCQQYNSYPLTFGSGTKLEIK

B1: chicken IgY (natural protein)
chain: AVTLDESGGGLQTPGGTLSLVCEGSGFTFSSFHMQWVRQALGKGLEWVAGISGSGKYTSYGAAVKGRATISRDNGQSTVRLQLNNLKAEDTGTYYCTRSSCGGCCDWSPYTTGCGAYSTGTIDAWGHGTEVIVSSASPTSPPRLYPLSACCSDSAVPPAVGCLLSPSSAGGISWEGSGGTAVAGRVSGTPVKLSFVRLSPGEKRKSFVCSAAPGGALLKKEVQVCRVDPVPPVAPEVQVLHPSSCTPSQSESVELLCLVTGFSPASAEVEWLVDGVGGLLVASQSPAVRSGSTYSLSSRVNVSGTDWREGKSYSCRVRHPATNTVVEDHVKGC[sequence of about 250 residues omitted]
modifications: biotin (only the form used for yeast display, Exalpha IgY-B)
Regarding B1, the “Δaffinity (−Δlog10(KD) against the naïve 2.1 scFv)” value in assay [1] was 0.91 log10; in assay [2], -3 log10; in assay [3] it was 0.26 log10.
